Assay results reported in PMC12136788.
Some of the results follow.

B1: 108931087_108931207_2860_3pUTR_ENSMUSG00000033623_ENSMUST00000046975|mouse|control|control (ssRNA)
RNA: GGGAGUUCUACAGUCCGACGAUCAGCCAUACUAAGUUUGAUCUGAUCUGUAAAUUAACUUUACUUGAAUUUGGAGGUUUGUAACUGCUUAAUUUCACCACAUGGGAAAAUACCUAAGUUCUAAUGUAACUGCAUUGUGAGAACCAACAGAGGAUUGAGCAUCA
B2: chr10:33190432:33190433:-_ENSG00000150093_ENST00000302278|hu_hu|FALSE|FALSE (ssRNA)
RNA: GGGAGUUCUACAGUCCGACGAUCUACAUUUUCAAAACCUGCACAUGAGUAAAACCAUGGCAAUAUUGCCCUAAAGCUACCUAACUGUGACUAUGGAAAUUGCUACUUUGCAUUCAGUGUUGUGGGAUUUGCACGGGCAGUACUCAACAGAGGAUUGAGCAUCA
B3: chr11:103733960:103733961:-_ENSMUSG00000034187_ENSMUST00000103075|mus_mus|motif|central (ssRNA)
RNA: GGGAGUUCUACAGUCCGACGAUCCAUUUUAACUUCCAGUCUUCCGGGUCGAAGGAGAGCUUCGUCUAUCAAAUCUGGUCGGUUGGUCAUUCCGAUAACGAGGAUGUUGUUCAGCUGCUCAACGCCAUCGAUCUUGGACAGCAGCAACAGAGGAUUGAGCAUCA
B4: chr11:46405157:46405158:+_ENSG00000110492_ENST00000395566|hu_hu|hu_hu_hu_mus_False|1_78 (ssRNA)
RNA: GGGAGUUCUACAGUCCGACGAUCCCCUCCCCACUUUGGGCACUUGGUGUGGGCGUGAAGGCAGGGCCGUGAUUGACAGAGCUGACAGGAAGACAAAAGGCACUGGUGGGUUAUAUCUUGGGCCUGUGGGAGAGGAGGCGUGGGCAACAGAGGAUUGAGCAUCA
B5: 74120724_74131215_1021_CDS_ENSG00000077809_ENST00000416070|human|control|control (ssRNA)
RNA: GGGAGUUCUACAGUCCGACGAUCUCCUUGAAUGUUAUAUUGAUAAUAAUCAGGAUCUUCUGAUUCUUCCUUUACUGUCACAGCUGCCAUUUCCAGGGAAAUGCCAGAAUCUUCUGUGGGUUCAGUUUUCACUUUGAUGGGGCCCAACAGAGGAUUGAGCAUCA
B6: chr3:10015032:10015033:+_ENSMUSG00000027533_ENSMUST00000029046|mus_mus|mus_mus_mus_hu_True|28_28 (ssRNA)
RNA: GGGAGUUCUACAGUCCGACGAUCGUUUUUACCAUCACAAGUGAUGAUACAAUCUGGCUUGGCCAUUGCGCCCAUUUUUCGCAAAGCUAUUCCCACUCCUAGCUCCUUCAUGUACUCAUCAAAGCCUUUGCUGUCCACCAGGCGCAACAGAGGAUUGAGCAUCA

The binders below were run against T1, UNK ZnF1-3 (human, UniProt Q9C0B0 31-174) (assay: nsRBNS (natural sequence RNA bind-n-seq); RBNS binding buffer (assumed for nsRBNS): 25 mM Tris pH 7.5, 150 mM KCl, 3 mM MgCl2, 0.01% Triton X-100, 500 ug/ml BSA, 20 U/ml SUPERase-In, 4 C; UNK is unkempt and MSI1 is Musashi-1; names of the RNAs are library labels; protein concentration not given here; high values mean tight binding).
T1 sequence: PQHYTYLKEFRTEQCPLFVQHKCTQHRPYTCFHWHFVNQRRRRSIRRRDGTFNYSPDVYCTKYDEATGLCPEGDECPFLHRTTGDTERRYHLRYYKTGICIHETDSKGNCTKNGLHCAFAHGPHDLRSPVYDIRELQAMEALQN
B1 showed a binding signal of 1.78 enrichment R.
Work on B2 yielded a binding signal of 0.86 enrichment R.
With B3 the binding signal was 1.26 enrichment R.
With B4 the binding signal was 2.01 enrichment R.
With B5 the binding signal was 0.531 enrichment R.
B6 showed a binding signal of 0.637 enrichment R.
